Measured values published in the supplement of paper PMC9433436.
± gives the standard deviation of the averaged measurements. In all, about 4,100 sequences were measured (“relative kcat/Km (krel) vs genomic leader AAAGAU”: median about 1.7, highest 2% from about 6.5 on). The entries are a selection whose mix differs from that of the whole data set.

Target: T1, E. coli RNase P holoenzyme (M1 P RNA + rnpA protein) (UniProt P0A7Y8)
T1 sequence: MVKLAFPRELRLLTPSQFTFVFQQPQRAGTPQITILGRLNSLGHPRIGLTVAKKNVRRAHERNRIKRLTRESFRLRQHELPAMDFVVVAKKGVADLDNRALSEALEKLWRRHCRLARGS
Assay: relative kcat/Km (krel) vs genomic leader AAAGAU (relative (reference leader = 1)); higher = faster RNase P cleavage
Protocol: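 HTS-Kin: a pool of ptRNA-Met (21C construct) with all 4096 combinations of 5' leader nucleotides N(-6) to N(-1) was processed in vitro by E. coli RNase P (P RNA + rnpA/C5 protein) under multiple-turnover conditions at 37 C, pH 8, 17.5 mM MgCl2. Residual substrate was Illumina-sequenced at several fractions reacted, and relative kcat/Km (krel) was computed by internal competition kinetics, calibrated to the genomic leader (AAAGAU = 1). The listed hexamer is the varied N(-6)..N(-1) leader (DNA letters), and it sits between a fixed 5' stem-loop flank (GCAUGCACGAAAGUGCGUGCUAUGAA) and the mature tRNA-Met starting GGCUACGUAGCUCAGUUGG. Two technical replicates are averaged.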

[1] = fraction of substrate reacted: ~9-10% (9.79% repeat 1, 9.1% repeat 2)
[2] = fraction of substrate reacted: ~13-16% (15.68% repeat 1, 13.17% repeat 2)
[3] = fraction of substrate reacted: ~26-29% (28.66% repeat 1, 26.4% repeat 2)

| Sequence | relative kcat/Km [1] | relative kcat/Km [2] | relative kcat/Km [3] |
| --- | --- | --- | --- |
| TATCCA | 1.63 ± 0.78 | 1.64 ± 0.45 | 2.14 ± 0.7 |
| ATCCAT | 3.89 ± 0.97 | 4.72 ± 1.4 | 7.14 ± 3.2 |
| GGCGCA | 1.73 ± 0.44 | 2 ± 1.2 | 3.02 ± 1.3 |
| ATGGAG | – | – | 0.809 ± 0.47 |
| ACAGCA | 1.85 ± 1.1 | 1.22 ± 0.039 | 1.4 ± 0.034 |
| AGCATG | 0.917 ± 0.78 | – | 1.29 ± 0.051 |
| TTTTGC | 3.65 ± 1.3 | 4.42 ± 1.1 | 6.61 ± 2.8 |
| AAAATT | 2.26 ± 1.2 | 1.53 ± 0.063 | 1.82 ± 0.3 |
| ATGCCC | 1.56 ± 0.57 | 0.97 ± 0.076 | 1.42 ± 0.2 |
| GCGCCC | 1.08 ± 0.69 | 1.12 ± 0.58 | 1.57 ± 0.31 |
| CATTTC | 2.59 ± 0.64 | 2.31 ± 0.88 | 4.06 ± 1.9 |
| CCGCTA | 0.931 ± 0.051 | 1.43 ± 0.35 | 1.19 ± 0.28 |
| ATACCT | 1.52 ± 0.97 | 1.67 ± 0.38 | 2.07 ± 1.1 |
| GTTCCC | 2.21 ± 1.7 | 1.92 ± 0.23 | 2.29 ± 0.42 |
| CGGCGC | 1.53 ± 0.046 | 1.27 ± 0.53 | 1.42 ± 0.12 |
| CCTATT | 1.95 ± 0.33 | 2.2 ± 0.23 | 2.65 ± 0.78 |
| GGCCTT | 1.87 ± 0.27 | 2.27 ± 0.52 | 2.46 ± 0.65 |
| TCTATC | 2.25 ± 0.66 | 2.61 ± 0.13 | 3.31 ± 1.3 |
| ACCCGG | 0.242 ± 0.034 | – | – |
| GGAGTC | 1.02 ± 0.45 | 0.6748 ± 0.0035 | 1.1 ± 0.081 |
| CTGTTA | 2.76 ± 1.4 | 1.44 ± 1.1 | 2.19 ± 0.06 |
| CGACAC | 1.85 ± 0.28 | 2.88 ± 0.2 | 4.4 ± 1.3 |
| TCACTT | 1.9 ± 0.32 | 2.82 ± 0.93 | 3.13 ± 1 |
| TAGCAT | 2.34 ± 0.67 | 2.96 ± 0.51 | 4.57 ± 1.4 |
| GTGGGT | – | – | 1.82 ± 1.2 |
| TGTAGC | 2.67 ± 1.2 | 2.86 ± 0.29 | 4.77 ± 2.2 |

| Sequence | relative kcat/Km [1] | relative kcat/Km [2] | relative kcat/Km [3] |
| --- | --- | --- | --- |
| AAGTGA | 1.39 ± 0.31 | 1.75 ± 0.17 | 2.17 ± 0.18 |
| TAGCCG | – | – | 1.05 ± 0.32 |
| GACCAC | 2.53 ± 1.4 | 3.51 ± 0.65 | 5.22 ± 1.2 |
| AATTCT | 1.82 ± 0.34 | 2.71 ± 0.24 | 3.32 ± 1.4 |
| CGGGCT | 1.64 ± 0.38 | – | 0.723 ± 0.33 |
| TTTTCG | – | 0.675 ± 0.51 | 1.74 ± 0.13 |
| CCAAGT | 1.25 ± 0.78 | 0.657 ± 0.038 | – |
| ATAAAT | 1.89 ± 0.56 | 2.35 ± 0.23 | 2.97 ± 1.1 |
| CGGTTA | – | 0.699 ± 0.1 | 0.639 ± 0.093 |
| CGCTTT | 2.41 ± 0.032 | 3.39 ± 1.4 | 4.89 ± 1.9 |
| TCCGAA | 5.05 ± 1.9 | 6.23 ± 1.9 | 9.05 ± 3.9 |
| GCACCA | 0.66 ± 0.35 | – | 0.801 ± 0.14 |
| CCGATC | 1.48 ± 0.57 | 1.14 ± 0.48 | 1.96 ± 0.31 |
| GGAAGC | 1.73 ± 0.69 | 1.38 ± 0.91 | 2.587 ± 0.025 |
| CACTAC | 4.63 ± 0.25 | 6.82 ± 2.5 | 8.23 ± 3.5 |
| TCAAAT | 2.26 ± 0.96 | 2.1 ± 0.13 | 2.86 ± 0.78 |
| ACAATC | 1.33 ± 0.61 | 2.25 ± 0.4 | 2.41 ± 0.74 |
| ATAGTA | 1.68 ± 0.35 | 1.78 ± 0.51 | 1.88 ± 1 |
| GTTAAT | 2.98 ± 0.76 | 3.77 ± 0.95 | 5.2 ± 2.3 |
| TGGGGG | – | – | 1.4 ± 1.3 |
| AGGAGG | – | – | 1.05 ± 0.058 |
| AGCTGA | 1.24 ± 0.13 | 1.3 ± 0.083 | 3.06 ± 1.6 |
| AGCATT | 1.76 ± 0.31 | 2.58 ± 0.046 | 3.56 ± 1.5 |
| CCCCAG | 0.952 ± 0.62 | 0.951 ± 0.43 | 2.51 ± 0.072 |
| TATGTA | 1.25 ± 0.51 | 1.07 ± 0.38 | 2.04 ± 0.57 |
| CTGTTC | 2.19 ± 0.66 | 2.04 ± 0.062 | 2.45 ± 0.29 |

| Sequence | relative kcat/Km [1] | relative kcat/Km [2] | relative kcat/Km [3] |
| --- | --- | --- | --- |
| GACCTC | 2.41 ± 0.81 | 2.49 ± 0.041 | 3.63 ± 0.74 |
| AGTAAC | 2.95 ± 1.2 | 3.66 ± 0.26 | 5.6 ± 2.4 |
| CGACCA | 1.67 ± 0.099 | 1.37 ± 0.59 | 1.55 ± 0.46 |
| ATCATG | – | 1.92 ± 0.8 | 3.1 ± 0.61 |
| GTAAGA | 3.03 ± 2.2 | 2.71 ± 0.77 | 3.58 ± 0.33 |
| GAGACA | 0.931 ± 0.17 | 1.11 ± 0.3 | 1.63 ± 0.39 |
| CGTGCA | 0.898 ± 0.71 | 1.43 ± 0.72 | 1.57 ± 0.55 |
| ACACCA | 1.49 ± 1.4 | 1.51 ± 0.16 | 1.3 ± 0.2 |
| TGTGAC | 2.05 ± 0.71 | 2.7 ± 0.56 | 3.24 ± 1.1 |
| CCTATC | 1.89 ± 0.98 | 2.43 ± 0.11 | 2.74 ± 0.88 |
| CCATCC | 3.11 ± 1 | 2.25 ± 0.14 | 3.75 ± 0.9 |
| ATATAT | 3 ± 0.9 | 4.49 ± 0.51 | – |
| GGATTG | – | 0.596 ± 0.058 | 0.73 ± 0.62 |
| GAGTCT | 1.46 ± 0.081 | 2.35 ± 0.1 | 2.66 ± 0.65 |
| TAGTCA | 2 ± 1 | 2.4 ± 0.28 | 3.09 ± 0.91 |
| CCAACC | – | 1.11 ± 0.49 | 1.3 ± 0.39 |
| ACCTTA | 3.48 ± 1.9 | 3.04 ± 0.036 | 4.62 ± 1.8 |
| TTAAGC | 2.38 ± 1.3 | 2.41 ± 0.11 | 3.2 ± 1.2 |
| CATCTT | 1.77 ± 0.57 | 2.05 ± 0.29 | 3.7 ± 1.5 |
| CCCATA | 2.83 ± 1.3 | 3.03 ± 0.6 | 4.43 ± 1.7 |
| GATTCC | 2.17 ± 0.93 | 2.13 ± 0.22 | 2.93 ± 0.71 |
| GTGGCC | 0.764 ± 0.16 | 0.924 ± 0.51 | – |
| ACCGCC | 2.87 ± 1.1 | 2.93 ± 0.072 | 4.69 ± 1 |
| TACTTA | 3.1 ± 0.66 | 4.1 ± 0.88 | 5.63 ± 2.6 |
| CCCCGC | 2.14 ± 1.4 | 2.8 ± 0.83 | 4.54 ± 1.6 |
| TGACAA | 3.11 ± 2.1 | 3.72 ± 0.47 | 4.23 ± 1.4 |

| Sequence | relative kcat/Km [1] | relative kcat/Km [2] | relative kcat/Km [3] |
| --- | --- | --- | --- |
| CGTTTG | 1.08 ± 0.88 | – | 1.88 ± 0.24 |
| TGCTGG | 0.26 ± 0.16 | – | 0.292 ± 0.1 |
| TACATT | 3.85 ± 1.4 | 5.11 ± 0.79 | 7.56 ± 3.7 |
| CGGGTA | – | – | 0.95 ± 0.89 |
| GGTTTC | 1.08 ± 0.39 | 1.01 ± 0.41 | 1.32 ± 0.084 |
| CCTCTA | 1.15 ± 0.22 | 1.13 ± 0.42 | 1.49 ± 0.084 |
| TCTAGA | 2.83 ± 0.24 | 3.36 ± 0.14 | 4.61 ± 1.9 |
| GTTCCT | 2.61 ± 0.67 | 2.55 ± 0.21 | 3.41 ± 1.4 |
| AGCGTC | 2.03 ± 0.35 | 1.43 ± 0.14 | 1.79 ± 0.62 |
| CGCGCG | 1.98 ± 1.4 | 1.14 ± 0.35 | 1.59 ± 0.48 |
| TTTCTC | 2.12 ± 0.99 | 2.29 ± 0.41 | 2.91 ± 0.93 |
| AGTACG | – | – | 1.87 ± 0.11 |
| ATTATT | 2.11 ± 1.1 | 2.59 ± 0.18 | 3.61 ± 1.5 |
| CAGATA | – | 1.09 ± 0.29 | 1.32 ± 0.13 |
| ATCACG | 1.99 ± 1.5 | 1.4 ± 0.23 | 2.97 ± 0.3 |
| CACTTT | 3.33 ± 1.1 | 4.55 ± 0.76 | 6.22 ± 2.4 |
| GGTACT | 1.06 ± 0.27 | 1.48 ± 0.13 | 2.24 ± 0.87 |
| GCCTTC | 3 ± 0.21 | 4.03 ± 2.2 | 5.81 ± 3.1 |
| GGGTGG | – | – | 0.703 ± 0.6 |
| CCGTGG | – | – | 0.516 ± 0.37 |
| ACATGA | 2.27 ± 0.64 | 2.54 ± 0.94 | 4.25 ± 2 |
| GCTTGT | – | 1.19 ± 1 | 1.81 ± 1.6 |
| ATTCAG | – | 0.859 ± 0.06 | 2.48 ± 0.15 |
